Some of the results follow. Many values rest on one well or one pass, so single values are uncertain.
Columns and labels:
Test in all cases: cell count relative to DMSO control; melanoma cells; higher = more viable cells
Settings in all cases: library dose: standard library concentration; 72 h
G361 = test system: G361
IPC-298 = test system: IPC-298
IST-MEL1 = test system: IST-MEL1
LB2518-MEL = test system: LB2518-MEL
LOXIMVI = test system: LOXIMVI
MEL-HO = test system: MEL-HO
MZ2-MEL = test system: MZ2-MEL
MeWo = test system: MeWo
RPMI7951 = test system: RPMI7951
RVH-421 = test system: RVH-421
SkMel28 = test system: SkMel28
SkMel2 = test system: SkMel2
SkMel30 = test system: SkMel30
SkMel5 = test system: SkMel5
UACC257 = test system: UACC257
UACC62 = test system: UACC62
WM115 = test system: WM115
WM1716 = test system: WM1716
WM3526 = test system: WM3526
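Further: cells treated in 1,536-well plates, then fixed and DAPI-stained, with nuclei counted from automated high-throughput microscope images.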

CC(=O)O[C@@]12CO[C@@H]1C[C@H](O)[C@@]1(C)C(=O)[C@H](O)C3=C(C)[C@@H](OC(=O)[C@H](O)[C@@H](NC(=O)OC(C)(C)C)c4ccccc4)C[C@@](O)([C@@H](OC(=O)c4ccccc4)[C@H]21)C3(C)C [Docetaxel] + CCc1ccc(CCOc2ccc(CC3SC(=O)NC3=O)cc2)nc1 [pioglitazone] (first compound 0.0005 µM, partner dose 10 µM)
cell count (G361): 15.3% | cell count (IPC-298): 52.6% | cell count (IST-MEL1): 40.8% | cell count (LB2518-MEL): 44.2% | cell count (LOXIMVI): 79.5% | cell count (MEL-HO): 42% | cell count (MZ2-MEL): 45.7% | cell count (MeWo): 22.1% | cell count (RPMI7951): 27% | cell count (RVH-421): 63.9% | cell count (SkMel28): 13.2% | cell count (SkMel2): 22.2% | cell count (SkMel30): 53.3% | cell count (SkMel5): 47.5% | cell count (UACC257): 69.9% | cell count (UACC62): 71.2% | cell count (WM115): 46.1% | cell count (WM1716): 31% | cell count (WM3526): 45.7%

CO[C@H]1C[C@@H]2CC[C@@H](C)[C@@](O)(O2)C(=O)C(=O)N2CCCC[C@H]2C(=O)O[C@H]([C@H](C)C[C@@H]2CC[C@@H](OCCO)[C@H](OC)C2)CC(=O)[C@H](C)/C=C(\C)[C@@H](O)[C@@H](OC)C(=O)[C@H](C)C[C@H](C)/C=C/C=C/C=C/1C [everolimus] + Oc1cc(-c2nc(-c3ccccc3)[nH]c2-c2ccncc2)ccc1Cl [L779450] (first compound 0.1 µM, partner dose 1 µM)
cell count (G361): 37.7% | cell count (IPC-298): 72.7% | cell count (IST-MEL1): 77.7% | cell count (LB2518-MEL): 69.3% | cell count (LOXIMVI): 100% | cell count (MEL-HO): 63.9% | cell count (MZ2-MEL): 75.1% | cell count (MeWo): 61.7% | cell count (RPMI7951): 66.7% | cell count (RVH-421): 63.8% | cell count (SkMel28): 38.8% | cell count (SkMel2): 19.8% | cell count (SkMel30): 77% | cell count (SkMel5): 53.6% | cell count (UACC257): 80.9% | cell count (UACC62): 50.8% | cell count (WM115): 39.3% | cell count (WM1716): 56.4% | cell count (WM3526): 45.1%

CC(=O)O[C@@]12CO[C@@H]1C[C@H](O)[C@@]1(C)C(=O)[C@H](O)C3=C(C)[C@@H](OC(=O)[C@H](O)[C@@H](NC(=O)OC(C)(C)C)c4ccccc4)C[C@@](O)([C@@H](OC(=O)c4ccccc4)[C@H]21)C3(C)C [Docetaxel] + CCN(CC)CCCCNc1ncc2cc(-c3cc(OC)cc(OC)c3)c(NC(=O)NC(C)(C)C)nc2n1 [PD173074] (first compound 0.0005 µM, partner dose 0.5 µM)
cell count (G361): 19.3% | cell count (IPC-298): 46.2% | cell count (IST-MEL1): 41% | cell count (LB2518-MEL): 55.9% | cell count (LOXIMVI): 79.6% | cell count (MEL-HO): 47.3% | cell count (MZ2-MEL): 58% | cell count (MeWo): 27.4% | cell count (RPMI7951): 25.5% | cell count (RVH-421): 68.1% | cell count (SkMel28): 18.1% | cell count (SkMel2): 22.4% | cell count (SkMel30): 50% | cell count (SkMel5): 41.1% | cell count (UACC257): 68.7% | cell count (UACC62): 58.4% | cell count (WM115): 46% | cell count (WM1716): 49.4% | cell count (WM3526): 44.8%

CC(=O)c1c(C)c2cnc(Nc3ccc(N4CCNCC4)cn3)nc2n(C2CCCC2)c1=O [palbociclib] + N#Cc1c(O)c2c(-c3ccc(-c4ccccc4O)cc3)csc2[nH]c1=O [A769662] (first compound 0.2 µM, partner dose 10 µM)
cell count (G361): 61.5% | cell count (IPC-298): 80.7% | cell count (IST-MEL1): 69.8% | cell count (LB2518-MEL): 74.8% | cell count (LOXIMVI): 67.8% | cell count (MEL-HO): 69% | cell count (MZ2-MEL): 63.8% | cell count (MeWo): 54.4% | cell count (RPMI7951): 51.9% | cell count (RVH-421): 58.5% | cell count (SkMel28): 59.9% | cell count (SkMel2): 64.7% | cell count (SkMel30): 73.2% | cell count (SkMel5): 55.5% | cell count (UACC257): 75.5% | cell count (UACC62): 71.6% | cell count (WM115): 57.2% | cell count (WM1716): 43.2% | cell count (WM3526): 50.4%

CC(=O)O[C@@]12CO[C@@H]1C[C@H](O)[C@@]1(C)C(=O)[C@H](O)C3=C(C)[C@@H](OC(=O)[C@H](O)[C@@H](NC(=O)OC(C)(C)C)c4ccccc4)C[C@@](O)([C@@H](OC(=O)c4ccccc4)[C@H]21)C3(C)C [Docetaxel] + COC(=O)c1sccc1S(=O)(=O)Nc1ccc(Nc2ccccc2)cc1OC [GSK0660] (first compound 0.0005 µM, partner dose 5 µM)
cell count (G361): 12.7% | cell count (IPC-298): 41.2% | cell count (IST-MEL1): 42.4% | cell count (LB2518-MEL): 28.2% | cell count (LOXIMVI): 34.4% | cell count (MEL-HO): 48.5% | cell count (MZ2-MEL): 41.4% | cell count (MeWo): 21.7% | cell count (RPMI7951): 36.8% | cell count (RVH-421): 55.5% | cell count (SkMel28): 17.6% | cell count (SkMel2): 20.8% | cell count (SkMel30): 36.3% | cell count (SkMel5): 34.3% | cell count (UACC257): 69.2% | cell count (UACC62): 58.5% | cell count (WM115): 32.8% | cell count (WM1716): 41.2% | cell count (WM3526): 41.9%

CC(=O)c1c(C)c2cnc(Nc3ccc(N4CCNCC4)cn3)nc2n(C2CCCC2)c1=O [palbociclib] + CCc1ccc(CCOc2ccc(CC3SC(=O)NC3=O)cc2)nc1 [pioglitazone] (first compound 0.2 µM, partner dose 10 µM)
cell count (G361): 79.5% | cell count (IPC-298): 99.7% | cell count (IST-MEL1): 82.7% | cell count (LB2518-MEL): 88.3% | cell count (LOXIMVI): 97.9% | cell count (MEL-HO): 82.9% | cell count (MZ2-MEL): 89.8% | cell count (MeWo): 68.6% | cell count (RPMI7951): 52.3% | cell count (RVH-421): 84.9% | cell count (SkMel28): 56.7% | cell count (SkMel2): 75.4% | cell count (SkMel30): 90.5% | cell count (SkMel5): 60% | cell count (UACC257): 89.2% | cell count (UACC62): 79.8% | cell count (WM115): 61.6% | cell count (WM1716): 41.8% | cell count (WM3526): 57.4%

CC(=O)c1c(C)c2cnc(Nc3ccc(N4CCNCC4)cn3)nc2n(C2CCCC2)c1=O [palbociclib] + O=C(O)C(=O)Nc1sc2c(c1C(=O)O)CCNC2 [TCS401] (first compound 0.2 µM, partner dose 8.33333 µM)
cell count (G361): 70.3% | cell count (IPC-298): 74.7% | cell count (IST-MEL1): 60.3% | cell count (LB2518-MEL): 65.9% | cell count (LOXIMVI): 97.7% | cell count (MEL-HO): 72.5% | cell count (MZ2-MEL): 70.2% | cell count (MeWo): 53% | cell count (RPMI7951): 62% | cell count (RVH-421): 77.2% | cell count (SkMel28): 50.9% | cell count (SkMel2): 55.6% | cell count (SkMel30): 87.2% | cell count (SkMel5): 55.2% | cell count (UACC257): 80.9% | cell count (UACC62): 74.5% | cell count (WM115): 50% | cell count (WM1716): 32.8% | cell count (WM3526): 55.2%

CC(=O)c1c(C)c2cnc(Nc3ccc(N4CCNCC4)cn3)nc2n(C2CCCC2)c1=O [palbociclib] + COc1ccc(-c2ccc3c(N4CCOCC4)nc(N4C[C@@H](C)O[C@@H](C)C4)nc3n2)cc1CO [KU0063794] (first compound 0.2 µM, partner dose 0.1 µM)
cell count (G361): 70% | cell count (IPC-298): 66.7% | cell count (IST-MEL1): 76.5% | cell count (LB2518-MEL): 70.2% | cell count (LOXIMVI): 128% | cell count (MEL-HO): 69.3% | cell count (MZ2-MEL): 80.6% | cell count (MeWo): 58.1% | cell count (RPMI7951): 61.8% | cell count (RVH-421): 76.5% | cell count (SkMel28): 49.4% | cell count (SkMel2): 64.8% | cell count (SkMel30): 65.7% | cell count (SkMel5): 55.9% | cell count (UACC257): 80.4% | cell count (UACC62): 93.3% | cell count (WM115): 70.3% | cell count (WM1716): 45.4% | cell count (WM3526): 54.5%

Reference: the supplement of paper PMC4604168 (melanoma cell lines)
